Assay results from article PMC8844851 (The Journal of Biological Chemistry, 2022).
No constants are given. Whether binding was seen depends on the method and setting. In cells and extracts the contact can be indirect. Some binding calls cover weakened binding; strength is not graded here. For part of these data: Where a sequence is shown, tags or fusion partners need not be part of it. Each block holds one molecule with its values, some of them ahead of it.

The chains behind the UniProt entries cited, without tags or fusion partners. Where a name states a change or a piece, a line headed by the entry shows the natural chain unless it says otherwise. Residues count along the entry.
UniProt P41091: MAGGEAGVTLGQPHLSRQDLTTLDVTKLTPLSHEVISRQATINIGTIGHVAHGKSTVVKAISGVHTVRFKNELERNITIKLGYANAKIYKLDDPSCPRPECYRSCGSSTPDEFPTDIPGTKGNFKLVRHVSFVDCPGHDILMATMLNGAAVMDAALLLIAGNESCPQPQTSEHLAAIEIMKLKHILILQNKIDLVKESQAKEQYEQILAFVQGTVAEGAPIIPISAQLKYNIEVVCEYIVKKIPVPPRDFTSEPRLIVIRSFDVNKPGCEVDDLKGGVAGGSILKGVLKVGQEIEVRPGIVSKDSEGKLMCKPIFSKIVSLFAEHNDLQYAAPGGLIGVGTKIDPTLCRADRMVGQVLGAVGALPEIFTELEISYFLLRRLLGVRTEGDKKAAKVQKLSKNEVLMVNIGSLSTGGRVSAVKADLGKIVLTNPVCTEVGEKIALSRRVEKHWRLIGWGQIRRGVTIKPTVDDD
^FLAGheIF2γ (amino acids 1–457) expressed in yeast: residues 1-457 of P41091
UniProt P32481: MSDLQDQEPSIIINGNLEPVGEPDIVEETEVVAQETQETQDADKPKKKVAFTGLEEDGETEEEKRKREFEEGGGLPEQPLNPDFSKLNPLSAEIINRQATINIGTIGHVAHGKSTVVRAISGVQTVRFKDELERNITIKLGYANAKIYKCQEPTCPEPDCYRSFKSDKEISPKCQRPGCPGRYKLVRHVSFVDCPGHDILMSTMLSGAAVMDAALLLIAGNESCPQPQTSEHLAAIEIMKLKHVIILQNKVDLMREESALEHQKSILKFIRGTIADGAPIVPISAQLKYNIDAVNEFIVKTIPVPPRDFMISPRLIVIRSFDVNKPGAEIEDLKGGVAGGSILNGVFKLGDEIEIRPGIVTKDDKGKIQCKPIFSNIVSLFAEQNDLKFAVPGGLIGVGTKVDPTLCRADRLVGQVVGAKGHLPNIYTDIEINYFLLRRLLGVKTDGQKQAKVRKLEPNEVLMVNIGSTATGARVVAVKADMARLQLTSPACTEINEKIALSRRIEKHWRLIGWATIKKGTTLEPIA
UniProt O75794: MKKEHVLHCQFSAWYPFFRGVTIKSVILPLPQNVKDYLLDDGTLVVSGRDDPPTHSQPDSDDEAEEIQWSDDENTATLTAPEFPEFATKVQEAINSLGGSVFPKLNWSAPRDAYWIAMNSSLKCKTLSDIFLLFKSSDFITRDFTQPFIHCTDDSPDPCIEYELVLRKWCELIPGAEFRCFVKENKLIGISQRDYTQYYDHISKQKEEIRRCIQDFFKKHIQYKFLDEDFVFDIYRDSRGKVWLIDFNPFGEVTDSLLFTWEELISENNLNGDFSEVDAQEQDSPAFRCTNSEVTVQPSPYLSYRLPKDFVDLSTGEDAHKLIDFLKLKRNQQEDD
UniProt P20042: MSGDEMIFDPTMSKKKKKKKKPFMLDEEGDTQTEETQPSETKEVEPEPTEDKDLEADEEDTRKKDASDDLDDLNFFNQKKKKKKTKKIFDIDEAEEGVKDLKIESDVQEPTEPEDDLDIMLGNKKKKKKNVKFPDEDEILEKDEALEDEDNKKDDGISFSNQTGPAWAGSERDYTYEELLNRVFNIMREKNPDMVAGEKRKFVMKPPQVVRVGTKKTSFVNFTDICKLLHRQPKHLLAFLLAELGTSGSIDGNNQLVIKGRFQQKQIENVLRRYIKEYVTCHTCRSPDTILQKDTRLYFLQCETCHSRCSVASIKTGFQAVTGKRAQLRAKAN
UniProt P05198: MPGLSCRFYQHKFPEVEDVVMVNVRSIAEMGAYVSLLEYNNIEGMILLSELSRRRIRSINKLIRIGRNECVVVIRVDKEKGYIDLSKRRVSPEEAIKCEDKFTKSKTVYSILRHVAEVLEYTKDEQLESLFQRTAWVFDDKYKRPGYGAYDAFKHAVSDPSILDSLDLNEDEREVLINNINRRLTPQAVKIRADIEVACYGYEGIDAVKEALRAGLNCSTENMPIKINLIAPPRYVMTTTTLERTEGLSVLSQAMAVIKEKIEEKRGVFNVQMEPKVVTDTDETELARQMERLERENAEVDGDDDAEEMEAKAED

Tests used:
[1] = molecular target: ^FLAGheIF2γ in Flp-In T-REx-293 cells (human) (UniProt P41091); assay: co-IP; Flp-In T-REx-293 cells with FLAG-heIF2γ or FLAG-hCdc123; around 8 mg lysate (150 mM NaCl, 50 mM Tris-HCl pH 8.2, 1% Triton X-100) on M2 anti-FLAG matrix, 2 h, 4 °C, eluted with 3x FLAG peptide; enrichment from extract to IP, heIF2γ set to 100% (n = 1)
[2] = molecular target: full-length ^FLAGheIF2γ expressed in yeast (human) (UniProt P41091); assay: co-IP; human FLAG-eIF2γ (full length or 1-457) coexpressed with human MYC-eIF2α, HA-eIF2β and MYC-Cdc123 in yeast; anti-FLAG IP, Western blot
[3] = molecular target: ^FLAGheIF2γ (amino acids 1–457) expressed in yeast (human) (UniProt P41091); assay: as above
[4] = molecular target: yeast eIF2γ (Gcd11) (S. cerevisiae (endogenous in W303 strains)) (UniProt P32481); assay: co-IP; Cdc123-FLAG precipitated with anti-FLAG beads from yeast strains overexpressing HA-tagged Sui2 variants (or Sui3) from the GAL1 promoter, compared with endogenous levels
[5] = molecular target: T1, GST-Cdc123 (S. cerevisiae) (UniProt Q05791); assay: pull-down; GST-Cdc123 coexpressed with His6-Sui2 or His6-Sui3 in E. coli; lysate on glutathione agarose beads for 3 h; Western blot
T1 sequence: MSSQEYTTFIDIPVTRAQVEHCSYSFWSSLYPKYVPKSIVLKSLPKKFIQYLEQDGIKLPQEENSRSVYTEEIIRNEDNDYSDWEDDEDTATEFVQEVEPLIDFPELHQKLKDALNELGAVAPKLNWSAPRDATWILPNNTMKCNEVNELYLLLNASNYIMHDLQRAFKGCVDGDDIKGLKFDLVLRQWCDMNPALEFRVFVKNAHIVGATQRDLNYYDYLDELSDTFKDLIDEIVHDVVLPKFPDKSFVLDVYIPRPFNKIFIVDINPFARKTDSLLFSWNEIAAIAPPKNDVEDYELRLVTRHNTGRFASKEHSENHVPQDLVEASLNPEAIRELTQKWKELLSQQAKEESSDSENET

[6] = molecular target: T2, C-terminally FLAG-tagged Cdc123 (S. cerevisiae, UniProt Q05791 1-360); assay: co-IP; Cdc123-FLAG precipitated with anti-FLAG beads from yeast strains overexpressing HA-tagged Sui2 variants (or Sui3) from the GAL1 promoter, compared with endogenous levels
T2 construct: Cdc123 of S. cerevisiae; also called Cdc123^FLAG; source: S. cerevisiae, in lysate; not shown: FLAG, C-terminal, kept
T2 sequence (looked up): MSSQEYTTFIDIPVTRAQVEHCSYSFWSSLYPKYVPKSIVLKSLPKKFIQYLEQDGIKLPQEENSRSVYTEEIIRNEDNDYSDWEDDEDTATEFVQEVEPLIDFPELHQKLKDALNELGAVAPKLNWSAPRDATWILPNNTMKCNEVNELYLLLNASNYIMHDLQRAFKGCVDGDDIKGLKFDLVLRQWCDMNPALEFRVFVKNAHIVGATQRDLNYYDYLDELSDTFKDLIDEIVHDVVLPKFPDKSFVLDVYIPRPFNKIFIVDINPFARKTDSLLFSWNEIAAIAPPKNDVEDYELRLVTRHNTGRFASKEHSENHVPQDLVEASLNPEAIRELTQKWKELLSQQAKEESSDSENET

[7] = molecular target: T3, endogenously FLAG-tagged Sui2 (S. cerevisiae) (UniProt P20459); assay: co-IP; endogenously FLAG-tagged Sui2, Sui3 or Gcd11 precipitated with anti-FLAG beads from yeast extract, 4 °C, 2 h; Cdc123 signal normalised to the FLAG-tagged subunit, Gcd11 set to 100% (n = 3)
T3 sequence: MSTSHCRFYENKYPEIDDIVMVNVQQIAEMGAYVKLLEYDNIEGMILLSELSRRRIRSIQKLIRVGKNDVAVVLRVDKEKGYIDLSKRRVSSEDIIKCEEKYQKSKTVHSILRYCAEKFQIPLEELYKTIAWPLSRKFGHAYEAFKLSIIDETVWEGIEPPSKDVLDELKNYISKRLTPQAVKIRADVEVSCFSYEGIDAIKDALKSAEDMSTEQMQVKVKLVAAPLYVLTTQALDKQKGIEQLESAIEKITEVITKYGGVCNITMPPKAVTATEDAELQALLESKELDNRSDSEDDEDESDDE

[8] = molecular target: T4, N-terminally 3xFLAG-tagged Sui2 V220E (S. cerevisiae) (UniProt P20459); assay: co-IP; N-terminally 3xFLAG-tagged Sui2 variants (TEF2 promoter) precipitated with anti-FLAG beads from yeast extract; Western blot for myc-Cdc123, Gcd11 and Sui3
T4 sequence: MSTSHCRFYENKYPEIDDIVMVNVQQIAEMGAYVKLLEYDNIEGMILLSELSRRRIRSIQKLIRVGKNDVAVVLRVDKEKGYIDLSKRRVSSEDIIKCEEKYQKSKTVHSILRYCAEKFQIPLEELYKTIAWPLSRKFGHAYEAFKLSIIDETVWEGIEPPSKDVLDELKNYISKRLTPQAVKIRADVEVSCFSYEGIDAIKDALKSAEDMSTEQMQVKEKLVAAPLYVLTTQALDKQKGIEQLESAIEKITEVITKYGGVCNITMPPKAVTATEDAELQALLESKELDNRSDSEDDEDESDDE

[9] = molecular target: T5, N-terminally 3xFLAG-tagged Sui2 L205E (S. cerevisiae) (UniProt P20459); assay: as above
T5 sequence: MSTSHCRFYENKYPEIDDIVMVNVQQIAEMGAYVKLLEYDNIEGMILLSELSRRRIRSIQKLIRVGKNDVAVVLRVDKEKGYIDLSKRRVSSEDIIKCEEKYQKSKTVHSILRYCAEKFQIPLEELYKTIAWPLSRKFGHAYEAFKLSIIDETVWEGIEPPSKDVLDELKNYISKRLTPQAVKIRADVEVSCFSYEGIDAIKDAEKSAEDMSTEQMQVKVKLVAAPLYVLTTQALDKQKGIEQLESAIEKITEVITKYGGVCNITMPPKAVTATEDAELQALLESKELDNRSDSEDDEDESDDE

binding [2]: binds
binding [3]: no binding
Molecule: human ^MYCCdc123 expressed in yeast (from UniProt O75794 1-336)

binding [4]: binds
B1: HA-tagged Sui2 WT, overexpressed (protein, UniProt P20459 1-304)
chain: MSTSHCRFYENKYPEIDDIVMVNVQQIAEMGAYVKLLEYDNIEGMILLSELSRRRIRSIQKLIRVGKNDVAVVLRVDKEKGYIDLSKRRVSSEDIIKCEEKYQKSKTVHSILRYCAEKFQIPLEELYKTIAWPLSRKFGHAYEAFKLSIIDETVWEGIEPPSKDVLDELKNYISKRLTPQAVKIRADVEVSCFSYEGIDAIKDALKSAEDMSTEQMQVKVKLVAAPLYVLTTQALDKQKGIEQLESAIEKITEVITKYGGVCNITMPPKAVTATEDAELQALLESKELDNRSDSEDDEDESDDE

binding [5]: binds
B2: His6-Sui2 (protein, UniProt P20459 1-304)
chain: MSTSHCRFYENKYPEIDDIVMVNVQQIAEMGAYVKLLEYDNIEGMILLSELSRRRIRSIQKLIRVGKNDVAVVLRVDKEKGYIDLSKRRVSSEDIIKCEEKYQKSKTVHSILRYCAEKFQIPLEELYKTIAWPLSRKFGHAYEAFKLSIIDETVWEGIEPPSKDVLDELKNYISKRLTPQAVKIRADVEVSCFSYEGIDAIKDALKSAEDMSTEQMQVKVKLVAAPLYVLTTQALDKQKGIEQLESAIEKITEVITKYGGVCNITMPPKAVTATEDAELQALLESKELDNRSDSEDDEDESDDE

binding [5]: no binding
B6: His6-Sui3 (protein, UniProt P09064 1-285)
chain: MSSDLAAELGFDPALKKKKKTKKVIPDDFDAAVNGKENGSGDDLFAGLKKKKKKSKSVSADAEAEKEPTDDIAEALGELSLKKKKKKTKDSSVDAFEKELAKAGLDNVDAESKEGTPSANSSIQQEVGLPYSELLSRFFNILRTNNPELAGDRSGPKFRIPPPVCLRDGKKTIFSNIQDIAEKLHRSPEHLIQYLFAELGTSGSVDGQKRLVIKGKFQSKQMENVLRRYILEYVTCKTCKSINTELKREQSNRLFFMVCKSCGSTRSVSSIKTGFQATVGKRRRM

The remaining lines, values behind:

Molecule: hCdc123 (endogenous) (from UniProt O75794 1-336)
binding [1]: binds

Molecule: heIF2β (endogenous) (from UniProt P20042 1-333)
binding [1]: binds

Molecule: human ^HAeIF2β expressed in yeast (from UniProt P20042 1-333)
binding [2]: binds
binding [3]: no binding

Molecule: heIF2α (endogenous) (from UniProt P05198 1-315)
binding [1]: binds

Molecule: human ^MYCeIF2α expressed in yeast (from UniProt P05198 1-315)
binding [2]: binds
binding [3]: no binding

B3: HA-tagged Sui2 (1-178), overexpressed (domain or fragment, UniProt P20459 1-178)
chain: MSTSHCRFYENKYPEIDDIVMVNVQQIAEMGAYVKLLEYDNIEGMILLSELSRRRIRSIQKLIRVGKNDVAVVLRVDKEKGYIDLSKRRVSSEDIIKCEEKYQKSKTVHSILRYCAEKFQIPLEELYKTIAWPLSRKFGHAYEAFKLSIIDETVWEGIEPPSKDVLDELKNYISKRLT
binding [6]: binds

B4: HA-tagged Sui2 (179-304), overexpressed (domain or fragment, UniProt P20459 179-304)
chain: PQAVKIRADVEVSCFSYEGIDAIKDALKSAEDMSTEQMQVKVKLVAAPLYVLTTQALDKQKGIEQLESAIEKITEVITKYGGVCNITMPPKAVTATEDAELQALLESKELDNRSDSEDDEDESDDE
binding [6]: binds
binding [4]: binds

B5: yeast eIF2β (Sui3) (protein, UniProt P09064 1-285)
chain: MSSDLAAELGFDPALKKKKKTKKVIPDDFDAAVNGKENGSGDDLFAGLKKKKKKSKSVSADAEAEKEPTDDIAEALGELSLKKKKKKTKDSSVDAFEKELAKAGLDNVDAESKEGTPSANSSIQQEVGLPYSELLSRFFNILRTNNPELAGDRSGPKFRIPPPVCLRDGKKTIFSNIQDIAEKLHRSPEHLIQYLFAELGTSGSVDGQKRLVIKGKFQSKQMENVLRRYILEYVTCKTCKSINTELKREQSNRLFFMVCKSCGSTRSVSSIKTGFQATVGKRRRM
binding [7]: binds
binding [8]: no binding
binding [9]: no binding
